Data as given in article PMC6919601, “Identification of Plasmodium dipeptidyl aminopeptidase allosteric inhibitors by high throughput screening” (PLoS ONE, 2019).
Several values for one entry are separate records, joined by “and”; a condition that tells them apart may be missing. Identical values can stand only once. Hit rate of the full screen: of about 110,000 compounds, about 230 (0.21%) showed an effect of 50% or more. This is one part of the list.

What follows are compounds tested against DPAP1 (Plasmodium falciparum, UniProt Q8IIJ9) (assay: primary screen, percent inhibition; read by cleavage of a fluorogenic dipeptide substrate; higher = more effect of the substance).
Chain of DPAP1 (Q8IIJ9 whole entry, looked up): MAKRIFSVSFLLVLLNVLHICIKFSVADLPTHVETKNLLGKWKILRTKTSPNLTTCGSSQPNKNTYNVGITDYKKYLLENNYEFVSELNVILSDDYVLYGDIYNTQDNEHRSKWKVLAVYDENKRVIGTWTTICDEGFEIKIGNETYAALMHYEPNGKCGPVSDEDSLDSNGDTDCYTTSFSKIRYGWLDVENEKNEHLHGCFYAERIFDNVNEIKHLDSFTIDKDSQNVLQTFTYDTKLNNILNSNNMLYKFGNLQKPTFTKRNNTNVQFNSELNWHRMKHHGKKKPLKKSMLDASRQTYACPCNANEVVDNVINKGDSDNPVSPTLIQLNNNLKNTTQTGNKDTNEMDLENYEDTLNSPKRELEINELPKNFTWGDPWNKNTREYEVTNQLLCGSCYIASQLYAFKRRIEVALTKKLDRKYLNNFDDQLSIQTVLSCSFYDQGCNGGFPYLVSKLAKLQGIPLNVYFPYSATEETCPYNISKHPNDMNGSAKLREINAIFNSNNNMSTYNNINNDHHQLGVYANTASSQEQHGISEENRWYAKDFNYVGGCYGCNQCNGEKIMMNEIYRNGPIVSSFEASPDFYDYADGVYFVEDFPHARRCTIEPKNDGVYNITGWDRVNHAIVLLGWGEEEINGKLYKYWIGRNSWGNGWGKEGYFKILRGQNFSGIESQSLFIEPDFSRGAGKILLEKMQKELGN
Parameters: species or system P. falciparum D10 trophozoite lysates; single well
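Also: 30 min substrate incubation versus DMSO and 10 µM JCP410 controls.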

Row | Structure (SMILES) | % Inhibition @ 10 uM
1 | O=C(COCc1cc(-c2ccco2)on1)Nc1cc(-c2cccc(Cl)c2)no1 | 5.8%
2 | CC1CCN(C(=O)c2ccc(C/N=c3/c(N4CCC(C)CC4)c(O)c3=O)cc2)CC1 | 1.15%
3 | Fc1ccc(N2CCN(Cc3cccc(Br)c3)CC2)cc1 | 3.16%
4 | Cc1s/c(=N\C(=O)c2ccco2)n(C)c1-c1ccc(Cl)cc1 | -1.73%
5 | CCn1cc(C(CC(=O)O)C(=O)O)c2ccccc21 (stereo not shown) | -5.41%
6 | O=C(Cn1nc(Cc2cccnc2)c2ccccc2c1=O)NCC1COc2ccccc2O1 (stereo not shown) | -4.69%
7 | CCO/C(O)=C1\C(C)=NC2=C(C(=O)CCC2)C1c1ccccc1C(F)(F)F (stereo not shown) | 16.8%
8 | O=S(=O)(c1ccc(Cl)cc1Cl)c1nc(N2CCOCC2)s[n+]1Cc1ccccc1 | -5.85%
9 | CC(C)CC(NC1CCS(=O)(=O)C1)C(=O)O (stereo not shown) | -2.65%
10 | CC(CC#CCN1CCCCC1)OC(C)(C)C (stereo not shown) | -5.89%
11 | CCOc1ccc(N(CC(=O)Nc2ccc3c(c2)OCO3)S(=O)(=O)c2ccc(C)cc2)cc1 | 4.25%
12 | COc1ccc(CNC(=O)CCCN2C(=O)c3ccccc3Sc3ncccc32)cc1 | -1.7%
13 | Cc1ccccc1/N=c1\scc(-c2ccccc2)n1CCO | 2.55%
14 | Cc1c(CC(=O)N2CCOCC2)c(=O)oc2cc(O)c(Cl)cc12 | -10.3%
15 | Cc1nn(CCCC(=O)NCC(C)c2ccccc2)c(=O)c2cc3sccc3n12 (stereo not shown) | -5.19%
16 | CCc1c(C)nc2nncn2c1NCc1ccc(C)cc1 | -0.808%
17 | COc1ccc(-c2ccccc2N)c(OC)c1 | -1.38%
18 | CCOCCCNC(=O)c1csc2c1CCCC2 | 0.277%
19 | Cn1c(COc2ccccc2Br)nc2ccccc21 | -1.29%
20 | Cc1ccc(C2C(C#N)=C(N)N(c3nc[nH]n3)C3=C2C(=O)CC(C)(C)C3)cc1 (stereo not shown) | -6.92%
21 | COc1ccc(-c2cc(C(F)(F)F)nc(SCC(=O)NC(C)(C)C)n2)cc1 | 25.2%
22 | O=C(CCn1nc(-c2ccccc2)ccc1=O)N1CCC2(CC1)OCCO2 | -0.0542%
23 | Cc1ccc(Cn2c(=O)c3ccccc3n3c(CCC(=O)NC4CCC(C)CC4)nnc23)cc1 (stereo not shown) | -0.692%
24 | COc1cc(/C=C2/SC(=O)N(CC(=O)N3CCOCC3)C2=O)ccc1C | -1.22%
25 | CCc1cccc(CC)c1NC(=O)Cn1cnc2scc(-c3ccc(OC)cc3)c2c1=O | 5.37%

Row | Structure (SMILES) | % Inhibition @ 10 uM
26 | O=C1c2ccccc2C(=O)N1c1nncs1 | 0.708%
27 | Cc1ccc2nc(-c3cc(N)ccc3Cl)oc2c1 | 0.756%
28 | O=C(NC(Cc1c[nH]c2ccccc12)C(=O)O)c1ccccc1 (stereo not shown) | 4.93%
29 | COc1ccc2c(c1)c(=O)oc1c(C)c(OCc3cc(C(=O)O)oc3C)ccc12 | 3.47%
30 | COc1ccc(-c2nc(CN3CCCC(C(=O)NC4CCCCC4C)C3)c(C)o2)cc1 (stereo not shown) | 0.689%
31 | COc1ccc(OC)c(C2c3cccn3CCN2C(=S)NC(C)(C)C)c1 (stereo not shown) | -3.18%
32 | Nc1cc(O)nc(SCc2ccc(Cl)cc2Cl)n1 | -7.18%
33 | Cc1ccc(CNC(=O)c2nnc(Cc3ccc4c(c3)OCO4)o2)cc1 | 4.47%
34 | Brc1ccc(CN2CCOCC2)o1 | -2.95%
35 | CC(C)Cc1nnc2sc(NC(=O)C(C)Oc3ccccc3)nn12 (stereo not shown) | 7.58%
36 | Cc1ccc(Nc2nn(C)c3c(C)ncc(C)[n+]23)cc1 | -0.545%
37 | Cc1ccc(-n2nc(C)c3c(C(=O)NCCN4CCc5ccccc5C4)cc(C)nc32)cc1 | -3.1%
38 | Cc1ccc(/C(O)=C/C=N/c2ccc(S(=O)(=O)Nc3onc(C)c3C)cc2)cc1 | 3.92%
39 | C=CCn1c2ccccc2n2nc(C)c(C(C)=O)c12 | 4.88%
40 | CCCOc1ccc(C2=CSC3=NCCN23)cc1 | -0.833%
41 | CC1=C(C(=O)Nc2ccccc2)C(c2cccnc2)C(C#N)=C(SCC(=O)Nc2ccc(F)cc2)N1 (stereo not shown) | -0.305%
42 | CC(C)(C)OC(=O)N[C@@H](Cc1cc(I)c(N)c(I)c1)C(=O)NCC#N | 7.39%
43 | Cc1cc(Oc2nc3c(C)cccn3c(=O)c2/C=C(\C#N)C(=O)N2CCCCC2)ccc1Cl | -1.43%
44 | COc1cc(Cl)cc2c1OC1(C=C2)c2ccccc2N(C)c2ccccc21 | -4.31%
45 | COCc1[nH]nc2c1C(c1ccc(F)cc1)C(C#N)=C(N)O2 (stereo not shown) | 0.385%
46 | COCCNC(=O)c1cc(-c2ccc(Cl)c(Cl)c2)on1 | -7.85%
47 | Cc1ccc2c(c1)C(c1ccccc1)N(C(=O)c1ccccc1)CC(=O)N2 (stereo not shown) | -1.66%
48 | CCCO/C(O)=C1/C(C)=NC2=C(C(=O)CCC2)C1c1ccc(CC)cc1 (stereo not shown) | 3.18%
49 | O=C(NO)c1ccc(C(=O)N(C2CCCCC2)C2CCCCC2)cc1 | -0.591%
50 | CC1CCC(NC(=O)CN2C(=O)C(c3ccccc3)Oc3cccnc32)CC1 (stereo not shown) | -0.397%

Row | Structure (SMILES) | % Inhibition @ 10 uM
51 | Cc1cccc(-n2c(C)nc3ccccc3c2=O)n1 | -7.94%
52 | CN(Cc1ccoc1)C1CCCCC1 | -4.98%
53 | O=C(/C=C/c1ccc2c(c1)OCO2)NCCc1ccccc1 | 0.736% and 2.94%
54 | CCC(=O)c1c(-c2ccccc2)nc2n(C)c3ccccc3n12 | -5.23%
55 | Cc1ccccc1-c1nc(CN2CCCC(C(=O)NC3CCCCCC3)C2)c(C)o1 (stereo not shown) | -4.95%
56 | Cc1cc(OCC(=O)N[C@@H](C)c2ccccc2)ccc1Br | -2.85%
57 | O=C(c1cc2ccccn2n1)N1CCN(Cc2ccccc2)CC1 | -3.45%
58 | COc1ccc(/C=C2N=C(/C=C/c3ccc(C)cc3)OC\2=O)c(OC)c1 | 0.0932%
59 | O=C(CCCCC(=O)Nc1cccc(Cl)c1)Nc1cccc(Cl)c1 | -4.43%
60 | N#CC1=C(N)Oc2c(cc(Cl)c3ccccc23)C1c1cccnc1 (stereo not shown) | 6.8%
61 | c1ccc(CC2CCN(Cc3ccco3)CC2)cc1 | -2.56%
62 | CS(=O)(=O)c1ccc2nc(NC(=O)COc3ccc(Cl)cc3Cl)sc2c1 | -0.99%
63 | O=c1nc(/C=C/c2ccccc2)[nH]c(=O)[nH]1 | -4%
64 | N#Cc1ccc(NC(=O)COc2ccc3ccccc3c2)cc1 | -2.16%
65 | O=C(O)C1C2CC3CC(C2)CC1(n1ncc(NC2CCCCC2)c(Cl)c1=O)C3 (stereo not shown) | 5.84%
66 | Cn1cccc1Cc1nnc(SCC(=O)N2CCCC2)n1Cc1ccccc1 | -4.97%
67 | CCO/C(O)=C1\C(CC)=NC2=C(C(=O)CC(C)(C)C2)C1c1ccc2c(c1)OCO2 (stereo not shown) | -0.999%
68 | Cc1cc(C)c(C#N)c(SCc2ccccn2)n1 | 66.4%
69 | NC(NC(=O)c1ccccc1)=C1C(=O)CCC1=O | -5%
70 | O=C(Nc1cnc2ccccn2c1=O)NC1CCCC1 | 3.66%
71 | O=C(Nc1cccc(F)c1)c1ccccc1C(=O)c1ncc[nH]1 | 1.04%
72 | NC(=O)C1CCN(C(=O)CSCc2cnn(-c3ccccc3)c2-n2cccc2)CC1 | -1.08%
73 | CCOC(=O)N1CCN(c2c(N(C)C3CCCCC3)c(=O)c2=O)CC1 | 1.93%
74 | CCn1c(C(=O)O)c(CNCc2ccc(Cl)cc2)c2ccc(C)cc21 | 0.16%
75 | CCC1CCCCN1CCCNc1nc2ccccc2n2c(C)nnc12 (stereo not shown) | 0.658%

Row | Structure (SMILES) | % Inhibition @ 10 uM
76 | CCN(CC)CCNc1sc(S(=O)(=O)CC)nc1S(=O)(=O)c1ccc(C)cc1 | -4.26%
77 | COc1cc(C2C3=C(O)CC(C)(C)CC3=NC(C)=C2C(=O)N2CCOCC2)cc(Cl)c1O (stereo not shown) | -6.38%
78 | Cc1cc(Cl)ccc1OCCCC(=O)Nc1ccccn1 | -2.19%
79 | CCC(C(=O)Nc1cc(C)on1)c1nc2ccccc2o1 (stereo not shown) | -14.5%
80 | Fc1ccc(N2CCN(C3CCN(CCc4ccccc4)CC3)CC2)cc1 | 1.88%
81 | CCOCCCn1c(SCC(=O)NCc2ccc(C)cc2)nc2c(sc3ccccc32)c1=O | 9.46%
82 | O=C(NCc1ccc(F)cc1)c1ccc2snnc2c1 | -7.27%
83 | COc1ccc2ccccc2c1CN1CCN(C(=O)Cc2ccccc2)CC1 | 0.587%
84 | CCc1nnc(NC(=O)Cc2noc3ccccc23)s1 | -3.49%
85 | CC(=O)c1ccc(C(=O)N[C@@H](CC(C)C)C(=O)NCC#N)cc1 | 0.174%
86 | CC(C)(Oc1ccc(Cl)cc1)C(=O)N1CCC(C(N)=O)CC1 | 1.37%
87 | Cc1c(C(c2cccc(Cl)c2)c2c(C)n(C)n(-c3ccccc3)c2=O)c(=O)n(-c2ccccc2)n1C | 2.13%
88 | Cc1ccc(-c2c(C)sc(NC(=O)c3ccnn3C)c2C(N)=O)cc1C | -0.318%
89 | COc1ccc(N2C(=O)N(c3ccccc3)C3CS(=O)(=O)CC32)cc1 (stereo not shown) | 4.49%
90 | COc1ccc(-c2cc(N)n(CCC#N)n2)c(OC)c1 | 0.708%
91 | N#C/C(=C\c1cccs1)c1nc(-c2ccc(F)cc2)cs1 | 5.29%
92 | Cc1cccc2c1-c1sc(C(=O)N3CCN(C)CC3)cc1CO2 | 7.82%
93 | CCn1c(SCc2nc(-c3ccc(Cl)cc3)no2)nnc1-c1ccncc1 | -0.666%
94 | CC(C)(C)NC(=O)CSc1ccc(C(C)(C)C)cc1 | -2.83%
95 | CCCC(=O)Nc1nc(-c2ccc(F)cc2)cs1 | 4.83%
96 | COc1ccc(OC)c(C2NCCc3c2[nH]c2ccccc32)c1 (stereo not shown) | -5.74%
97 | CC(C)c1ccc(NC(=O)CN(C2CCCCC2)S(C)(=O)=O)cc1 | -0.545%
98 | O=C(NC1CCCCCC1)NC1CCCCC1 | -5.35%
99 | CC1CC(C)CN(C(=O)C2CCN(S(=O)(=O)N3CCC4(CC3)OCCO4)CC2)C1 (stereo not shown) | 2.18%
100 | O=C(NCCc1c[nH]c2ccccc12)c1noc2c1COc1ccccc1-2 | 91.5%
